Assay results published in PubChem BioAssay AID1030 (National Center for Advancing Translational Sciences (NCATS), 2008).
In all, about 220,000 compounds went through this assay and about 16,000 (7.3%) were called active. This list was built around the results that the source calls inconclusive (neither active nor inactive); the mix of calls is not that of the screen. Calls come from the whole dose curve; as a rule, active = well fitted inhibition curve with a large enough effect (not every such curve was filed as active); inconclusive = small, poorly fitted or top-dose-only effect, or another doubt; inactive = no such curve, though single readings can be large or run the other way. Potencies of inconclusive entries are left out as doubtful fits.

biological target: Aldehyde dehydrogenase 1A1 (Homo sapiens) (UniProt P00352); test: qHTS Assay for Inhibitors of Aldehyde Dehydrogenase 1 (ALDH1A1); details: Purified ALDH1A1, NADH fluorescence, propionaldehyde substrate; series mostly up to 75.3 µM
Potency is the fitted concentration of half-maximal effect; tags give direction and shape of the fitted curve.

UniProt P00352, sequence (P00352 whole entry, looked up): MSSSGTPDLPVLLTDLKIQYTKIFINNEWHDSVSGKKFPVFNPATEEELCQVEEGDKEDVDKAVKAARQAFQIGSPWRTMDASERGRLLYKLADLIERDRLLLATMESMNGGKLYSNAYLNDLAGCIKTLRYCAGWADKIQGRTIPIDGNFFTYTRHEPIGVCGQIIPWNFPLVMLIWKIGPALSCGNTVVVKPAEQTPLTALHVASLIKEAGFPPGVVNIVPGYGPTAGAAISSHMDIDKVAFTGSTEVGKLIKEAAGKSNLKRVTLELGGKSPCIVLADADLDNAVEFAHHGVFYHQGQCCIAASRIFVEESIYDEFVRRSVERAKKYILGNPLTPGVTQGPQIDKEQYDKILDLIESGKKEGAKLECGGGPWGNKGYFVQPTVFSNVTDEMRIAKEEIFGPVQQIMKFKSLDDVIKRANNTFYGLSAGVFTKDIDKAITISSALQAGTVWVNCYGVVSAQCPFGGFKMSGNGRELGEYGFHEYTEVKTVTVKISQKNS

Compound	Potency
COc1cccc(N=Nc2c(N)[nH][nH]c2=O)c1	inactive
O=C(Cc1ccc(Cl)cc1)Nc1ccc(N2CCN(C(=O)c3ccco3)CC2)c(Cl)c1	inconclusive [inhibitor, partial curve]
Fc1ccccc1C(c1nnnn1C1CCCC1)N1CCN(Cc2ccccc2)CC1 (stereo not drawn)	inconclusive [inhibitor, single point]
CCN(C(=O)/C=C/c1ccc2c(c1)OCO2)c1ccccc1	inactive
CCCc1nc2oc3c(OC)ncnc3c2c2c1COC(C)(C)C2	active: 0.891 µM
Cc1ccc(C(=O)ONc2ccc(N=O)cc2)cc1	inconclusive [inhibitor, full curve]
CSCc1cc(N2CCCC2)nc(-c2ccccc2)n1	inactive
Cc1nc2sccn2c1-c1nc(-c2cc3ccccc3o2)cs1	inconclusive [inhibitor, single point]
CCCc1nc2sc3c(=O)n(N)cnc3c2c2c1COC(C)(C)C2	inactive
N#Cc1c(/N=C/c2ccco2)oc(-c2ccccc2)c1-c1ccccc1	inconclusive [inhibitor, partial curve]
Fc1ccc(Nc2ncncc2-c2ccccc2C(F)(F)F)cc1	inconclusive [inhibitor, single point]
N#CC1=C(N)N(c2ccc(Cl)c(Cl)c2)C(=O)C1	active: 28.2 µM
CC(C)N(C(=O)CSc1nc2ccccc2n1Cc1ccccc1)C(C)C	inactive
Cc1cccc(-n2nnnc2SCn2nnc3ccccc3c2=O)c1	inconclusive [inhibitor, single point]
[O-]/C(=C(\C(=S)Nc1ccccc1F)[n+]1ccccc1)c1ccc(-c2ccccc2)cc1	active: 17.8 µM
Cn1c(N)c(C(=O)COC(=O)c2cc(C3CC3)nc3ccccc23)c(=O)n(C)c1=O	inactive
CC1CCN(c2ccc(NC(=O)c3cccnc3Cl)cc2)CC1	inconclusive [inhibitor, single point]
Oc1ccc(-c2csc(-c3cccnc3)n2)c(O)c1	inactive
CC(C)(CNC(=S)NCCc1ccccc1)CNC(=S)NCCc1ccccc1	inconclusive [inhibitor, single point]
CCOc1ccc2c(c1)sc(=NC(=O)C1CC1)n2C	inactive
O=C(O)c1ccc(-c2nc(-c3ccc(Cl)c(Cl)c3)cs2)cc1	inactive
COC(=O)COc1cc(OCC(=O)OC)c2c(C)c(Cl)c(=O)oc2c1	inconclusive [inhibitor, partial curve]
O=C(COC(=O)C12CC3CC(CC(C3)C1)C2)Nc1ccc(OC(F)F)cc1	inconclusive [inhibitor, partial curve]
